Counter-ions that a name gives are not always drawn. The list shows a part of the results. The data scatter; read single values as rough.
Experiments:
Experiment in all cases: ALDHbr (CSC) cell proportion score relative to DMSO vehicle (ratio to DMSO); breast (SUM159) / gastric (MKN45) / pancreatic (PANC1) / colon cancer lines; ALDHbr cells have high ALDH activity and are rich in cancer stem cells (CSC); higher = more CSC (ALDHbr) cells remaining
Details in all cases: 10 µM; 72 h
MKN45 = test system: MKN45
PANC1 = test system: PANC1
SUM159 = test system: SUM159
T84 = test system: T84
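Also: High-content imaging of ALDEFLUOR-stained cells with Hoechst-labelled nuclei in 384-well plates, triplicate wells, scored as Z-score against 0.1% DMSO vehicle, negative meaning fewer ALDHbr cells.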

Structure (SMILES)	ALDHbr (MKN45)	ALDHbr (PANC1)	ALDHbr (SUM159)	ALDHbr (T84)
Cc1cccc(Nc2ccncc2S(=O)(=O)NC(=O)NC(C)C)c1 [Torsemide]	1.08	0.898	0.901	1.16
CC(NCCC(c1ccccc1)c1ccccc1)c1ccccc1 (stereo not given) [Fendiline hydrochloride]	1.33	1.04	0.442	0.38
CC(=O)OCC(=O)[C@@]1(O)CC[C@H]2[C@@H]3CCC4=CC(=O)C=C[C@]4(C)[C@@]3(F)[C@@H](O)C[C@@]21C [Isoflupredone acetate]	1.03	0.565	1.09	0.856
Cc1ccnc(NS(=O)(=O)c2ccc(N)cc2)n1 [Sulfamerazine]	1.02	0.917	1.02	0.872
N/C(=N\C(=O)c1nc(Cl)c(N)nc1N)NCc1ccccc1 [Benzamil hydrochloride]	1.58	0.747	0.924	0.685
OC(CCN1CCCCC1)(c1ccccc1)C1CCCCC1 (stereo not given) [Trihexyphenidyl-D,L Hydrochloride]	1.3	0.984	1.15	0.976
NS(=O)(=O)c1cc2c(cc1Cl)NC(C(Cl)Cl)NS2(=O)=O (stereo not given) [Trichlormethiazide]	0.994	0.828	0.805	1.05
Fc1ccc([C@@H]2CCNC[C@H]2COc2ccc3c(c2)OCO3)cc1 [Paroxetine Hydrochloride]	1.45	0.883	0.809	0.848
Cc1cn[nH]c1 [Fomepizole]	0.976	0.924	1.07	0.853
COc1ccc2[nH]cc(CCNC(C)=O)c2c1 [Melatonin]	0.949	0.824	1.05	0.924
C=C(CC)C(=O)c1ccc(OCC(=O)O)c(Cl)c1Cl [Ethacrynic acid]	1.06	0.659	0.821	0.772
O=C(C1CCCCC1)N1CC(=O)N2CCc3ccccc3C2C1 (stereo not given) [Praziquantel]	0.388	0.662	1.25	0.858
O=C(O)c1ccccc1OP(=O)(O)O [Fosfosal]	0.956	0.858	1.01	0.947
CCN(CC)CCc1nc(-c2ccccc2)no1 [Oxalamine citrate salt]	0.896	0.777	0.491	0.908
Nc1c(Br)cc(Br)cc1CN[C@H]1CC[C@H](O)CC1 [Ambroxol hydrochloride]	1.02	0.844	1.18	1.07
CCCc1nc2c(C)cc(-c3nc4ccccc4n3C)cc2n1Cc1ccc(-c2ccccc2C(=O)O)cc1 [Telmisartan]	0.802	0.874	0.806	0.692
CC[N+](C)(CC)CCOC(=O)C1c2ccccc2Oc2ccccc21 [Methantheline bromide]	1.02	0.944	0.876	0.943
COC(=O)C1=C(C#N)NC(C)=C(C(=O)OC(C)C)C1c1cccc([N+](=O)[O-])c1 (stereo not given) [Nilvadipine]	0.298	0.673	0.763	0.65
CC(C)NCC(O)COc1ccc(COCCOC(C)C)cc1 (stereo not given) [Bisoprolol fumarate]	0.864	0.866	0.934	1
CCn1cc(C(=O)O)c(=O)c2ccc(C)nc21 [Nalidixic acid sodium salt]	1.01	0.854	1.06	1

Structure (SMILES)	ALDHbr (MKN45)	ALDHbr (PANC1)	ALDHbr (SUM159)	ALDHbr (T84)
CCc1cc(Cl)c(OC)c(C(=O)NC[C@@H]2CCCN2CC)c1O [S(-)Eticlopride hydrochloride]	0.545	1.05	0.85	0.744
c1ccc(CC2=NCCN2)cc1 [Tolazoline hydrochloride]	0.885	1.06	1.42	0.87
CC(CN(C)C)CN1c2ccccc2Sc2ccccc21 (stereo not given) [Trimeprazine tartrate]	0.823	1.36	0.745	1.1
Nc1ccc(S(=O)(=O)Nc2ncccn2)cc1 [Sulfadiazine]	0.849	0.809	1.15	0.882
CCOC(=O)C(C)(C)Oc1ccc(Cl)cc1 [Clofibrate]	1.17	0.902	0.98	0.915
COc1cccc(N(C)C(=S)Oc2ccc3c(c2)CCCC3)n1 [Liranaftate]	0.634	0.752	0.937	0.992
Cc1oncc1C(=O)Nc1ccc(C(F)(F)F)cc1 [Leflunomide]	0.745	0.967	1.94	1.04
CC(=O)Oc1ccccc1C(=O)Oc1ccccc1C(=O)O [Acetylsalicylsalicylic acid]	1.01	0.883	0.808	0.902
CCOC(=O)[N-]c1c[n+](N2CCOCC2)no1 [Molsidomine]	1.04	0.862	1.02	0.948
CCOc1ccccc1OCC1CNCCO1 (stereo not given) [Viloxazine hydrochloride]	0.965	0.968	1.22	1.06
C[C@@H](O)[C@H]1C(=O)N2C(C(=O)O)=C(SCCNC=N)C[C@H]12 [Imipenem]	1.02	0.961	0.972	0.932
COc1cc(Cc2cnc(N)nc2N)cc(OC)c1OC [Trimethoprim]	1.1	0.988	0.934	0.946
Cc1c(NC(C)C)c(=O)n(-c2ccccc2)n1C [Isopyrin hydrochloride]	0.756	0.947	0.984	1.27
CC(=O)Oc1ccccc1C(=O)O [Acetylsalicylic acid]	1.06	0.823	0.995	0.983
CC(=O)N[C@@H](CC(C)C)C(=O)O [N-Acetyl-L-leucine]	1.05	1.1	0.931	1.11
NS(=O)(=O)c1cc2c(cc1Cl)NCNS2(=O)=O [Hydrochlorothiazide]	1.04	0.984	0.955	0.681
COc1cc(C)nc(-n2nc(C)cc2OC)n1 [Epirizole]	0.909	0.895	0.985	1.05
CC1(C)[C@@H](OC(=O)CCC(=O)O)CC[C@]2(C)[C@H]3C(=O)C=C4[C@@H]5C[C@@](C)(C(=O)O)CC[C@]5(C)CC[C@@]4(C)[C@]3(C)CC[C@@H]12 [Carbenoxolone disodium salt]	1.06	0.913	0.988	1.02
Nc1nc(N)nc(-c2cc(Cl)ccc2Cl)n1 [Irsogladine maleate]	1.14	0.835	0.98	1.05
COc1ccc(-c2ccc3cc(C(=O)O)ccc3c2)cc1C12CC3CC(CC(C3)C1)C2 [Adapalene]	0.123	1.69	0.426	0.2
